Assay results published in the supplement of paper PMC3334620.
In all, about 33,000 sequences were measured (“E-score (-0.5 to 0.5)”: median about -0.043, highest 2% from about 0.37 on). Some of the results follow.

target: T1, Upc2 (UniProt Q12151); experiment: PBM E-score (8-mer binding enrichment) (E-score (-0.5 to 0.5)); higher = stronger / more preferred TF binding; most listed sequences are background and not binding sites; details: protein concentration: 200 nM; construct: GST-full length
T1 sequence: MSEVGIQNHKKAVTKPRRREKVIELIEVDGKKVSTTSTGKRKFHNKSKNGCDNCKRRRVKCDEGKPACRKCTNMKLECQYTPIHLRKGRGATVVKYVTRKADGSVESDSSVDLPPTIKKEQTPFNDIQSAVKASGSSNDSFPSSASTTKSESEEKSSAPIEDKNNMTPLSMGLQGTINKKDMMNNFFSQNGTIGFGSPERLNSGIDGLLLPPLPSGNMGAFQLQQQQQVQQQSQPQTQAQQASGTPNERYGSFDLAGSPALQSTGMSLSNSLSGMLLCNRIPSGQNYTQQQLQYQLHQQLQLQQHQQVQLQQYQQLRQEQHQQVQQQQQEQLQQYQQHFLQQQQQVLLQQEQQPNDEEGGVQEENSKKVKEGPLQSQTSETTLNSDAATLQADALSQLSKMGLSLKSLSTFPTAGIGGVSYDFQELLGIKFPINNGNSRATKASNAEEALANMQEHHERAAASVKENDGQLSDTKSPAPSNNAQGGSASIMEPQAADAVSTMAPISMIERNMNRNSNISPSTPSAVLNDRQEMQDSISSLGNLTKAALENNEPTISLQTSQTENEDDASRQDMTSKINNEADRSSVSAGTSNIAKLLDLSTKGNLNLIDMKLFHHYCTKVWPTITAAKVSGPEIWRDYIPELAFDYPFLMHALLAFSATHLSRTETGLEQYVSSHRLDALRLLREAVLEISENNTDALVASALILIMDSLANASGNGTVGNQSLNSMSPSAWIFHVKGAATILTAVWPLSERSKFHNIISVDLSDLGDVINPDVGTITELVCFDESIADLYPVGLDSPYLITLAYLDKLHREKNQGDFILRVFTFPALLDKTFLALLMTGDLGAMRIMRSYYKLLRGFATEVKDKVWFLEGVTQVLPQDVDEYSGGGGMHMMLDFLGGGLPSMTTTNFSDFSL
How it was run: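 Detection of bound protein used fluorescent anti-GST, with scans normalised by masliner. The proteins were GST-tagged yeast transcription factors applied at about 100-200 nM to universal all-10-mer Agilent arrays made double-stranded by primer extension. Each ungapped eight-base word, pooled with its reverse complement, was scored with an E-score from the Universal PBM Analysis Suite.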

Point of comparison: ACGGAGCC, “PBM E-score” value -0.0783. Against it:
- AGTTTGGC — higher, -0.015
- AATAAAAG — higher, 0.0452
- CCAAGTCA — lower, -0.137
- AATACAAG — higher, 0.00549
- CAGCTCCA — lower, -0.241
- CCGCCCCC — lower, -0.134
- CTCGAAAC — higher, 0.0826
- CAAACAGG — higher, -0.0601
- CAGCGGGC — lower, -0.329
- CTGTGGGA — lower, -0.194
- GCGATAGC — higher, 0.0279
- TAGAGAAA — higher, 0.00343
- CTAATTTC — higher, 0.0527
- CAAATACA — higher, -0.00056
- GCTTCATA — lower, -0.162
- AAGCAAAA — higher, -0.00335
- CACACGGG — lower, -0.277
- CGTAAGGC — higher, 0.268
- GAACCGCC — higher, -0.0633
- TCCCCGGA — higher, -0.0623
- CTAGTTTC — higher, -0.0213
- CGTTCGCC — higher, 0.227
- CAGGGGAA — lower, -0.11
- ATCCGCAC — higher, -0.0554
- CACAATCA — lower, -0.171
- GGATACAC — higher, 0.00698
- AGACGCAT — lower, -0.0879
- CCATAAAG — lower, -0.136
- ATCTTGCC — higher, -0.0505
- GACTTAGC — lower, -0.159
- ACTTGTAG — lower, -0.131
- ACCTCGGC — higher, 0.0177
- ACAGTGCC — lower, -0.101
- TCCTCGAA — higher, 0.0179
- GAAAATTC — higher, 0.0172
- AACGGACA — higher, 0.249
- CCTAATGC — lower, -0.217
- AGGCGTAC — higher, 0.238
- ACTGACTG — higher, -0.0255
- TAATACTA — higher, 0.105
- AATTTTTC — higher, 0.038
- CGCACTCC — higher, -0.0478
- ACCCGAAT — higher, 0.178
- CTGATAAC — higher, 0.0192
- ATCTAAAA — higher, -0.0555
- AATTCACT — lower, -0.234
- AGCGCGCG — higher, 0.0572
- AAACCTCG — higher, 0.0616
- ACAGTCCT — lower, -0.319
- ATCCTCAC — higher, 0.0717
- ATTGAAGA — lower, -0.226
- ATTATGCC — higher, -0.0194
- CAGACATG — higher, -0.0207
- AGCTACCC — lower, -0.265
- CGACCGTC — higher, -0.0557
- ACAACCGA — higher, 0.167
- ATAGGAGG — lower, -0.26
- TGGAATAA — higher, 0.0285
- AGTGAGAA — higher, -0.0477
- GCTCGCTA — higher, 0.196
- AGTACCAT — higher, 0.0365
- TAGCTTGA — higher, -0.0392
- CCCTCGCG — higher, 0.147
- TAGTGCGA — lower, -0.0997
- GACGAAGA — higher, -0.0247
- ATAATTGA — higher, 0.0764
- CGTGTAAC — higher, 0.0107
- ATCCCTCC — lower, -0.158
- CGGTATCC — higher, 0.00595
- TTACCCAA — lower, -0.0792
- ACCACACT — lower, -0.109
- CTGAGGGC — lower, -0.0785
- ATAAATAT — higher, 0.0205
- CGGTCGCC — higher, 0.126
- CTACACCC — lower, -0.296
- GCGGCCAC — lower, -0.267
- TCGCACCA — higher, 0.15
- GAGATTAC — higher, -0.0768
- CGCACGGA — higher, 0.00832
- CACTTACC — higher, 0.0944
- CGGGGAAA — higher, 0.0981
- TGCCATAA — lower, -0.142
- GAAGTAAC — higher, -0.0181
- CGATGTTA — higher, 0.0277
- CCTGTGCG — higher, 0.0706
- CAACTTAA — higher, 0.0267
- AGTAGAAA — higher, 0.185
- TACCCTAA — higher, 0.0855
- GTGCAACA — lower, -0.249
- GTGTGATA — higher, 0.135
- AGGTTTAT — higher, 0.133
- AATTCACC — higher, -0.019
- GATATCCC — higher, -0.0348
